From PubChem BioAssay (NCI)
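96-well plates; 48 h exposure; 5 concentrations. Endpoints by linear interpolation between flanking doses. Not reached: highest tested concentration assigned. Abbreviation: GI50, concentration required for 50% inhibition of growth. TGI: concentration producing complete growth inhibition.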

Test system: NCI-H322M lung
Experiment: growth of human tumour cells (NCI), 48 h

Structure (SMILES) | GI50 | TGI
CC(C)Sc1nc(NCCc2c[nH]c3ccccc23)c(C#N)c(-c2ccccc2)n1 | 15.3 µM | 33.7 µM
O=C(N/N=C/c1c[nH]c2ccccc12)Nc1ccccc1Cl | 1.06 µM | 21.3 µM
Oc1ccc(/C=C2\CCCc3cc4ccc(O)cc4[o+]c32)c(O)c1 | 12.9 µM | 71.5 µM
